Source: the supplement of paper PMC3334620
The full ranking holds about 33,000 sequences; the median of “E-score (-0.5 to 0.5)” is about -0.011, and the highest 2% start at about 0.28. Some of the results follow.

The sequences below were run against T1, Gcr1 (UniProt P07261) (assay: PBM E-score (8-mer binding enrichment) (E-score (-0.5 to 0.5)); higher = stronger / more preferred TF binding; most listed sequences are background and not binding sites). Details: protein concentration: 100 nM; construct: GST-full length.
T1 sequence: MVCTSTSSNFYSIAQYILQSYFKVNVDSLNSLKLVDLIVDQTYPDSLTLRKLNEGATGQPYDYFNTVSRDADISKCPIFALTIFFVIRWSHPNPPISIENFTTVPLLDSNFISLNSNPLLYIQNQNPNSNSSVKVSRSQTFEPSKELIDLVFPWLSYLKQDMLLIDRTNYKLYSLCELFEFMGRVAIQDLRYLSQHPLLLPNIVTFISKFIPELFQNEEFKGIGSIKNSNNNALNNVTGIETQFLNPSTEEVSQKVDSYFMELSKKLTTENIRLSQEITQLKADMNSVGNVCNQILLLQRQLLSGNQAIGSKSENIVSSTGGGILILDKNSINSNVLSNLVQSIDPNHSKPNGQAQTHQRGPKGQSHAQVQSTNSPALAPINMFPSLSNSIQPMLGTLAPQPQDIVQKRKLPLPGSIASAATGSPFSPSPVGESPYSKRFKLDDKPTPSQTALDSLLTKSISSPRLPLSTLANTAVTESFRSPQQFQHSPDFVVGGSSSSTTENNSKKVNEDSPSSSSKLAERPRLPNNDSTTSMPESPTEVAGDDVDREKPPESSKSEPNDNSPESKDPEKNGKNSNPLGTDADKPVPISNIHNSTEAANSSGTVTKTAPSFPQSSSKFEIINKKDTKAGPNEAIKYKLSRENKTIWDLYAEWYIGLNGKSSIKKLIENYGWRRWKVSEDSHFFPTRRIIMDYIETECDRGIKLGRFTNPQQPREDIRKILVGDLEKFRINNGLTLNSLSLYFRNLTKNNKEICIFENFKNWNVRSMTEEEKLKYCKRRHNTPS
In short: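 The E-score, a modified Wilcoxon-Mann-Whitney statistic, was computed by the Universal PBM Analysis Suite for every ungapped eight-base word pooled with its reverse complement. Scans behind it were normalised with masliner after bound GST-tagged yeast transcription factors were detected with fluorescent anti-GST. The proteins, at about 100-200 nM, had been applied to universal all-10-mer Agilent arrays made double-stranded by primer extension.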

| Sequence | PBM E-score |
| --- | --- |
| TACAAGAA | 0.379 |
| GTAGGGTA | 0.0186 |
| AACGGTAA | -0.104 |
| ACTCCCGA | -0.132 |
| GAAAGAAA | -0.00222 |
| CAGTGACC | -0.0348 |
| CCTGCAAA | -0.0849 |
| GCTACTGA | 0.134 |
| AGATTTAA | -0.051 |
| AAGGTAGA | -0.0145 |
| AACTACCC | -0.0549 |
| ATACGTGC | -0.162 |
| CTGCCCAA | -0.0694 |
| CACAGGTG | 0.0843 |
| GTTGACAA | 0.0264 |
| CCGCACAA | -0.228 |
| ATGCACCG | 0.0335 |
| AAAGAATT | 0.0694 |
| CTCGAATA | -0.0395 |
| GAGTTGCA | -0.0956 |
| AATCGTAG | -0.0634 |
| CGTCCCAC | 0.0816 |

| Sequence | PBM E-score |
| --- | --- |
| CTAAGGCA | -0.136 |
| ACACGCGC | -0.0262 |
| GACACGAC | -0.00308 |
| CCTAGCAA | 0.0796 |
| TGGTTCAA | -0.11 |
| CCTCGCTC | -0.0356 |
| ACGTGACT | -0.226 |
| CAATAGCC | -0.237 |
| CTAGGAGC | 0.181 |
| AATCGACT | -0.0728 |
| GATTCATA | -0.0102 |
| CAAAGAGG | -0.0776 |
| GAGGTGGC | -0.189 |
| ACTATAAG | 0.00633 |
| GGTAGAAC | -0.245 |
| GCCCCCAA | 0.193 |
| ACATTGGT | 0.0429 |
| AGCTGTAG | 0.0786 |
| ATGTGGGG | -0.0217 |
| CGACCGCA | -0.027 |
| AATGACTA | -0.197 |
| AAGATGAT | 0.0175 |

| Sequence | PBM E-score |
| --- | --- |
| GTGCTAAC | 0.129 |
| AATTTACC | 0.0413 |
| CGCTGACA | 0.153 |
| GGCTTGCA | -0.142 |
| AGCCGAAA | 0.183 |
| CTCCCGTA | 0.0078 |
| TGGATTAA | 0.0316 |
| ACGGACCA | -0.0842 |
| ACAATGCT | -0.136 |
| CTGACACC | 0.115 |
| CAGGAAGA | 0.0842 |
| ACGTCTGA | -0.162 |
| ACATAGAG | -0.106 |
| AGTCCGGC | -0.156 |
| GAACTGAA | 0.0692 |
| TAAGGACA | -0.115 |
| GCACTTAC | -0.111 |
| CGTGCCTC | -0.135 |
| CTCCTATA | 0.0592 |
| ATCATATA | 0.18 |
| CCACAATC | 0.156 |
| GTATTAGA | 0.158 |

| Sequence | PBM E-score |
| --- | --- |
| GCGGAGCC | 0.0363 |
| TGCAACAA | -0.192 |
| GGCTCACC | -0.139 |
| ATCGGGCA | -0.143 |
| CGGTGGTC | -0.112 |
| AGCCAGGA | -0.196 |
| ACATTCAT | -0.0523 |
| ACCAGCAG | 0.11 |
| CACTCTAC | 0.0796 |
| TCAAACCA | 0.0818 |
| GCTCAAAA | 0.176 |
| AATTCAAG | -0.0134 |
| ACTTGGGA | -0.0199 |
| GTCGACTA | -0.132 |
| CTTGCTCC | -0.0003 |
| GGTTCTAC | -0.0583 |
| CTCTATCC | -0.172 |
| ATACCACC | 0.149 |
| CATGCTAG | -0.193 |
| CATATGTC | -0.143 |
| ATAAGATG | 0.243 |
| CATGCTGC | -0.074 |

| Sequence | PBM E-score |
| --- | --- |
| CTGATAGA | 0.145 |
| GATTGATA | -0.0521 |
| AGATTCGA | 0.00089 |
| AAAGACCT | -0.0113 |
| AGTAGCCA | 0.0595 |
| ATTTTCTC | -0.0311 |
| GGCATGCC | -0.0696 |
| TTATTAAA | 0.211 |
| CTCATGCA | -0.0866 |
| CGTAGTCC | -0.209 |
| AAGGTGCA | -0.0118 |
| ATAGGACC | 0.124 |
| AATATGGT | 0.0724 |
| AAACGCCA | -0.13 |
| CTTGTGAA | -0.148 |
| AACGTCAA | 0.0249 |
| CTCAAGTC | -0.042 |
| AACGGGGC | 0.113 |
| AAGGAAAG | -0.115 |
| CCCTTATA | 0.0626 |
| ACAAGAGG | 0.141 |
